# Results published in the supplement of paper PMC8728848.
# Some of the results follow.
# B1: HPA (Helix pomatia), Q575S3 (protein)
# chain: MWAHLTGLLLICALSLSAAQRAQTGEIDCGSDSSWPKDPSDNPNRDNTREIVKHVTFSPQFCREPKVILSVTTLDAEHTKNLRYEARLKSVSPSGLSASCYSWHDGTIYRMKLSWLAVED
# What was measured:
# Experiment in all cases: glycan array binding signal (z-score within array); higher = stronger binding
# Settings in all cases: glycan notation: IUPAC condensed, linker removed
# [1] = target: Fuc(a1-2)[Gal(a1-3)]Gal(b1-3)GlcNAc(b1-3)GalNAc
# Method in brief: (§1)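 Glycan array data came from 3228 arrays in the Consortium for Functional Glycomics database, and only arrays with an available protein sequence were kept. Glycan names were put into IUPAC-condensed notation, and columns mapping to the same glycan were averaged. The binding signal is a within-array Z-score, averaged across arrays of one protein sequence run at different concentrations or buffers and across linkers. A negative Z-score can be read as non-binding.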
# [2] = target: Fuc(a1-2)[Gal(a1-3)]Gal(b1-3)GlcNAc(b1-6)GalNAc
# Method in brief: as §1
# [3] = target: Fuc(a1-2)[Gal(a1-3)]Gal(b1-4)Glc
# Method in brief: as §1
# [4] = target: Fuc(a1-2)[Gal(a1-3)]Gal(b1-4)GlcNAc
# Method in brief: as §1
# [5] = target: Fuc(a1-2)[Gal(a1-3)]Gal(b1-4)GlcNAc(b1-2)Man
# Method in brief: as §1
# [6] = target: Fuc(a1-2)[Gal(a1-3)]Gal(b1-4)GlcNAc(b1-2)Man(a1-3)[Fuc(a1-2)[Gal(a1-3)]Gal(b1-4)GlcNAc(b1-2)Man(a1-6)]Man(b1-4)GlcNAc(b1-4)GlcNAc
# Method in brief: as §1
# [7] = target: Fuc(a1-2)[Gal(a1-3)]Gal(b1-4)GlcNAc(b1-2)Man(a1-3)[Fuc(a1-2)[Gal(a1-3)]Gal(b1-4)GlcNAc(b1-2)Man(a1-6)]Man(b1-4)GlcNAc(b1-4)[Fuc(a1-6)]GlcNAc
# Method in brief: as §1
# [8] = target: Fuc(a1-2)[Gal(a1-3)]Gal(b1-4)GlcNAc(b1-3)GalNAc
# Method in brief: as §1
# [9] = target: Fuc(a1-2)[Gal(a1-3)]Gal(b1-4)GlcNAc(b1-3)[Fuc(a1-2)[Gal(a1-3)]Gal(b1-4)GlcNAc(b1-6)]GalNAc
# Method in brief: as §1
# [10] = target: Fuc(a1-2)[Gal(a1-3)]Gal(b1-4)GlcNAc(b1-6)GalNAc
# Method in brief: as §1
# [11] = target: Fuc(a1-2)[Gal(a1-3)]Gal(b1-4)[Fuc(a1-3)]Glc
# Method in brief: as §1
# [12] = target: Fuc(a1-2)[Gal(a1-3)]Gal(b1-4)[Fuc(a1-3)]GlcNAc
# Method in brief: as §1
# [13] = target: Fuc(a1-2)[Gal(a1-3)]Gal(b1-4)[Fuc(a1-3)]GlcNAc(b1-3)GalNAc
# Method in brief: as §1
# [14] = target: Fuc(a1-2)[Gal(a1-4)]Gal(b1-4)GlcNAc
# Method in brief: as §1
# [15] = target: Fuc(a1-2)[GalNAc(a1-3)]Gal
# Method in brief: as §1
# [16] = target: Fuc(a1-2)[GalNAc(a1-3)]Gal(b1-3)GalNAc(a1-3)[Fuc(a1-2)]Gal(b1-4)GlcNAc
# Method in brief: as §1
# [17] = target: Fuc(a1-2)[GalNAc(a1-3)]Gal(b1-3)GalNAc(b1-3)Gal(a1-4)Gal(b1-4)Glc
# Method in brief: as §1
# [18] = target: Fuc(a1-2)[GalNAc(a1-3)]Gal(b1-3)GlcNAc
# Method in brief: as §1
# [19] = target: Fuc(a1-2)[GalNAc(a1-3)]Gal(b1-3)GlcNAc(b1-2)Man(a1-3)[Fuc(a1-2)[GalNAc(a1-3)]Gal(b1-3)GlcNAc(b1-2)Man(a1-6)]Man(b1-4)GlcNAc(b1-4)GlcNAc
# Method in brief: as §1
# [20] = target: Fuc(a1-2)[GalNAc(a1-3)]Gal(b1-3)GlcNAc(b1-2)Man(a1-3)[Fuc(a1-2)[GalNAc(a1-3)]Gal(b1-3)GlcNAc(b1-2)Man(a1-6)]Man(b1-4)GlcNAc(b1-4)[Fuc(a1-6)]GlcNAc
# Method in brief: as §1
# [21] = target: Fuc(a1-2)[GalNAc(a1-3)]Gal(b1-3)GlcNAc(b1-3)GalNAc
# Method in brief: as §1
# [22] = target: Fuc(a1-2)[GalNAc(a1-3)]Gal(b1-3)GlcNAc(b1-6)GalNAc
# Method in brief: as §1
# [23] = target: Fuc(a1-2)[GalNAc(a1-3)]Gal(b1-4)Glc
# Method in brief: as §1
# [24] = target: Fuc(a1-2)[GalNAc(a1-3)]Gal(b1-4)GlcNAc
# Method in brief: as §1
# [25] = target: Fuc(a1-2)[GalNAc(a1-3)]Gal(b1-4)GlcNAc(b1-2)Man
# Method in brief: as §1
# [26] = target: Fuc(a1-2)[GalNAc(a1-3)]Gal(b1-4)GlcNAc(b1-2)Man(a1-3)[Fuc(a1-2)[GalNAc(a1-3)]Gal(b1-4)GlcNAc(b1-2)Man(a1-6)]Man(b1-4)GlcNAc(b1-4)GlcNAc
# Method in brief: as §1
# [27] = target: Fuc(a1-2)[GalNAc(a1-3)]Gal(b1-4)GlcNAc(b1-2)Man(a1-3)[Fuc(a1-2)[GalNAc(a1-3)]Gal(b1-4)GlcNAc(b1-2)Man(a1-6)]Man(b1-4)GlcNAc(b1-4)[Fuc(a1-6)]GlcNAc
# Method in brief: as §1
# [28] = target: Fuc(a1-2)[GalNAc(a1-3)]Gal(b1-4)GlcNAc(b1-2)Man(a1-3)[GalNAc(a1-3)[Fuc(a1-2)]Gal(b1-4)GlcNAc(b1-2)Man(a1-6)]Man(b1-4)GlcNAc(b1-4)GlcNAc
# Method in brief: as §1
# [29] = target: Fuc(a1-2)[GalNAc(a1-3)]Gal(b1-4)GlcNAc(b1-3)Gal(b1-4)GlcNAc
# Method in brief: as §1
# [30] = target: Fuc(a1-2)[GalNAc(a1-3)]Gal(b1-4)GlcNAc(b1-3)Gal(b1-4)GlcNAc(b1-3)Gal(b1-4)GlcNAc
# Method in brief: as §1
binder,measurement,setting,value
B1,glycan array binding signal (z-score),[1],-0.247
same,glycan array binding signal (z-score),[2],-0.242
same,glycan array binding signal (z-score),[3],-0.255
same,glycan array binding signal (z-score),[4],-0.268
same,glycan array binding signal (z-score),[5],-0.247
same,glycan array binding signal (z-score),[6],-0.269
same,glycan array binding signal (z-score),[7],-0.244
same,glycan array binding signal (z-score),[8],-0.243
same,glycan array binding signal (z-score),[9],-0.247
same,glycan array binding signal (z-score),[10],-0.246
same,glycan array binding signal (z-score),[11],-0.247
same,glycan array binding signal (z-score),[12],-0.251
same,glycan array binding signal (z-score),[13],-0.244
same,glycan array binding signal (z-score),[14],-0.081
same,glycan array binding signal (z-score),[15],3.92
same,glycan array binding signal (z-score),[16],4.9
same,glycan array binding signal (z-score),[17],4.46
same,glycan array binding signal (z-score),[18],3.71
same,glycan array binding signal (z-score),[19],3.17
same,glycan array binding signal (z-score),[20],2.11
same,glycan array binding signal (z-score),[21],2.06
same,glycan array binding signal (z-score),[22],2.39
same,glycan array binding signal (z-score),[23],3.04
same,glycan array binding signal (z-score),[24],3.1
same,glycan array binding signal (z-score),[25],3.78
same,glycan array binding signal (z-score),[26],4.18
same,glycan array binding signal (z-score),[27],2.27
same,glycan array binding signal (z-score),[28],3.86
same,glycan array binding signal (z-score),[29],4.44
same,glycan array binding signal (z-score),[30],4.28
